PubChem BioAssay (NCI)
Several values for one entry are separate records, joined by “and”; a condition that tells them apart may be missing. Equal entries are not always repeated.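 Each compound was tested at five concentrations against cells in 96-well plates for 48 hours. GI50 marks 50% less growth. TGI: total growth inhibition.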

Test system: NCI-H322M lung
Test: NCI anticancer screen, dose series, 48 h

| SMILES | TGI | GI50 |
| --- | --- | --- |
| CC1=CC(=O)CC2(C)CC[C@@H]3C[C@]12OC3(C)C (stereo not given in full) | > 100 µM | – |
| COc1ccc(OC)c(NC(=O)CCC/C(CC(=O)c2ccc(O)c(OC)c2)=N\Nc2nnc(C)n2N)c1 | > 100 µM | – |
| CC(NC(=O)NC(C)(C)C)NC(=O)C(N)CC(=O)O (stereo not given) | > 100 µM | – |
| CCC(O)c1ccc(Br)cc1NC(=O)c1cccc(Cl)c1 (stereo not given) | 55.6 µM | 22.5 µM |
| Cc1cnc2sn(-c3ccc([N+](=O)[O-])cc3)c(=O)c2c1 | > 100 µM | – |
| CC(=O)c1c(C)nc(SSc2nc(C)c(C(C)=O)c(-c3ccc(Cl)cc3)c2C#N)c(C#N)c1-c1ccc(Cl)cc1 | > 150 µg/mL | 121 µg/mL |
| COc1cc2ncn(-c3cc(OCc4ccccc4C(F)(F)F)c(C(=O)N(C)C)s3)c2cc1OC | > 25 µM | > 25 µM |
| CC[n+]1oc(C(=O)c2ccc(Cl)cc2)c(-c2ccccc2)c1-c1ccccc1.[Cl][Fe]([Cl])([Cl])[Cl] | > 100 µM | > 100 µM |
| CC(C)Nc1cc(-c2c[nH]c(C(=O)N[C@H](CO)c3cccc(Cl)c3)c2)c(Cl)cn1 | 16.6 µM and > 10 µM | 0.824 µM and 0.716 µM |
| COc1ccc2nc(-c3ccccc3)cc(OCC(=O)O)c2c1 | > 100 µM | – |
| C=CCNc1nc2c(s1)C(=O)c1ccccc1C2=O | 27.7 µM | – |
| Clc1ccc(C2=NN=C3C(c4ccccc4)=Nc4ccccc4N3C2)cc1 | > 37.2 µM | – |
| Cc1ccc(SC2C(=O)C3CC(OCc4ccccc4)C2(C)C3(C)C)cc1 (stereo not given) | > 100 µM | – |
| CCC1(N=[N+]=[N-])C(=O)c2ccccc2N(C)C1=O (stereo not given) | > 100 µM | – |
| CC1/C=C/[C@@]2(C)CCC(C(C)(C)O)C2C(O)C[C@](C)(O)/C=C/C1 (stereo not given in full) | > 100 µM | – |
| CN(Cc1cnc2nc(N)nc(N)c2n1)c1ccc(C(=O)N[C@@H](CCC(=O)O)C(=O)O)cc1 | > 250 µM | – |
| CCOc1ccc2[nH]c3c(C)c4ccncc4c(C)c3c2c1 | 2.43 µM | – |
| C=C(CC(NC(=O)c1ccc(C(CC)Cc2cnc3nc(N)nc(N)c3n2)cc1)C(=O)O)C(=O)O (stereo not given) | > 100 µM | > 100 µM |
| OCc1ccc(N2CCc3cccc(F)c3C2)cc1Cl | 7.62 µM | 1.39 µM |
| O=S(=O)(NC1=NCCN1C(=S)SN1CCn2c1nsc2=S)c1cccc2ccccc12 | > 100 µM | 34.1 µM |
| O=C1/C(=C/c2cccc(Br)c2)COc2ccc(O)cc21 | 24.8 µM | 12.3 µM |
| COc1ccc(-n2c(N)c(C#N)[nH]c2=O)cc1 | > 10 µM | – |
| O=S(=O)(NCCNc1nccc(-c2c(-c3ccc(F)c(O)c3)nc3sccn23)n1)c1ccc(F)cc1 | 30.4 µM | 3.36 µM |
| COc1ccc(NC(=O)CSC2=C(Nc3cccc(Br)c3)C(=O)N(Cc3ccccc3)C2=O)cc1Cl | > 100 µM | 75.4 µM |
